Assay results from ChEMBL document CHEMBL4888484, “Replenishing the malaria drug discovery pipeline: Screening and hit evaluation of the MMV Hit Generation Library 1 (HGL1) against asexual blood stage Plasmodium falciparum ,using a nano luciferase reporter read-out” (2022).
About 540 (0.36%) of roughly 150,000 compounds showed an effect of 50% or more. The list shows a part of the results.

Tested on: Plasmodium falciparum
Assay: Primary screen in NF54 nanoGlo assay, in single point, at 2uM, 72h; a lower Z score goes with more inhibition
Type: functional, Erythrocyte
Conditions: timepoint 72 hour

Structure (SMILES)	% Inhibition	Z score
O=C1CCN(S(=O)(=O)c2ccccc2)CCCN(S(=O)(=O)c2ccc3c(c2)OCCO3)CCN1	-21%	2.41
COc1cccc(OC)c1C(=O)Nc1cc2ccccc2cc1NC(=O)c1c(OC)cccc1OC	5%	-0.9
Cc1cc(COCC(=O)N2CCOCC23CCCCC3)no1	3%	-0.67
O=C(C[C@H]1CCS(=O)(=O)C1)NC1(c2noc(C3CCCC3)n2)CCCCCC1	-4%	0.54
Fc1ccc(-c2nn(-c3ccccc3)cc2C2Nc3cccc4cccc(c34)N2)cc1	1%	-0.13
Fc1ccc(NCC[C@H]2CCCO2)c(OC(F)F)c1	-13%	2.26
CC(=O)NC[C@@H]1CN(C(=O)Cc2cc(C)ccc2C)C[C@H]1c1cncn1C	-8%	1.27
Cc1nsc(C(=O)N2CCN(Cc3ccc4c(c3)OCO4)CC2)n1	-16%	2.41
CC(C)[C@H](Cn1cncn1)NC(=O)c1ccc(Cl)s1	10%	-1.26
Cc1ccc(C)n1-c1c(C(=O)NCCc2cccs2)sc2ncccc12	-14%	1.31
Cc1nn(C)c(C)c1[C@H]1OCC[C@@H]1CNC(=O)c1cccn1C(C)C	0%	-0.01
CC(C)c1nccn1CC(=O)Nc1ccccc1C(=O)NC1CC1	-13%	2.14
COc1ccc(-c2nc(C)c(C(=O)NCCOc3ccccc3)s2)cc1OC	-3%	0.56
CCOc1cccc(-c2ccc3nc(-c4ccc(C)cc4)c(CN4CCN(S(=O)(=O)c5ccc(OC)cc5)CC4)n3c2)c1	15%	-1.62
CCOc1cccc(CNC(=NC)c2cccs2)c1	0%	0.03
COc1cccc(C(=O)Nc2ccc(N3CCN(C(=O)c4cccc(F)c4)CC3)c(C(=O)N3CCCCC3)c2)c1	-1%	0.13
O=C(NC[C@H]1O[C@@H](CO)[C@@H](O)[C@H]1N1CCc2ccccc2C1)N1CCOCC1	15%	-1.76
CCc1cccc(NC(=O)Cn2c(=O)c(N3CCCCC3)nc3ccccc32)c1	-7%	1.19
CCc1noc(CNC(=O)NCCNc2nc(C)cc(=O)[nH]2)n1	-20%	1.82
COc1ccc(Nc2nc(-c3ccco3)nc3ccc(C)cc23)cc1	13%	-1.61
COCCNC(=O)[C@H]1CCCN(c2nnc3ccc(C(F)(F)F)cn23)C1	-25%	4.25
Cc1cn2c(n1)CC[C@H](Nc1ncccc1F)C2	0%	0
O=C(CC[C@H]1CCCOC1)Nc1cc(O)cc(F)c1	-6%	0.51
O=C(NC1CCCC1)[C@H]1CCN(c2cnn(CC3CC3)c(=O)c2)C1	-5%	0.77
Cc1cccc(CCNC2CCN(c3ccc(-n4nc(C)cc4C)cc3)CC2)n1	-12%	1.06
COc1cc(NC(=O)N2CCC[C@H]2CO)cc(-n2cnnn2)c1	-16%	2.47
Fc1ccccc1CN(Cc1cccnc1)C[C@H]1CCCN(C2CCCCC2)C1	-9%	1.32

Structure (SMILES)	% Inhibition	Z score
NC(=NCC1(c2ccccc2Cl)CC1)N1CCOCC1	-3%	0.44
CCC1(O)CCN(C(=O)c2ccc3cc[nH]c3c2)CC1	-10%	1.89
CC(C)C[C@H](C)n1nccc1NC(=O)c1ncoc1-c1ccco1	-10%	1.63
CC(c1ccccc1)C1CC(=O)N(c2ccc(Cl)cn2)C1=O (stereo unspecified)	-4%	0.62
CC(C)(C)c1nnnn1C[C@H](O)C(F)(F)F	-2%	0.2
Nc1nc2c(c(C(=O)N(Cc3ccccn3)C[C@@H]3CCC(=O)N3)n1)CCCC2	13%	-1.67
C[C@@H](c1nc(C(=O)NCc2ccc(F)cc2)no1)n1ccnc1	0%	0.06
CC(C)[C@H](NC(=O)c1cnn[nH]1)c1ccccn1	-3%	0.42
COCC(=O)N1CCC2(CC1)CN(C(=O)OC(C)(C)C)C2	-1%	0.21
CN(C)c1ncccc1C(=O)OC1CCCC1	-15%	1.38
CCCn1c(=O)sc2cc(NS(=O)(=O)c3ccc(CC)cc3)ccc21	-3%	0.43
COc1cc(Br)cc(C)c1NC(=O)NCCO	6%	-0.88
COc1cncc(C(=O)N(c2cccc(C(F)(F)F)c2)C(C)C)n1	11%	-1.67
CCC[C@]1(COC)CCCN1C(=O)c1cnc(Cc2ccccc2)s1	1%	-0.13
CCn1nc(C)c2c(-c3ccccc3)cc(O[C@@H](C)C(=O)NCc3ccco3)nc21	-7%	0.8
C[C@H]1CCc2ccccc2N1CC(=O)N1CCc2ccccc21	-11%	1.53
CC1CCC(Oc2cc(CNC(=O)C3CC=CC3)ccn2)CC1 (stereo unspecified)	-7%	1.44
OC[C@@H]1C[C@H](O)CN1Cc1nc2c(F)cccc2[nH]1	-11%	1.4
CC(C)C[C@H](NC(=O)c1n[nH]c2c1CCCC2)c1nnc2ccccn12	0%	-0.01
O=C1C[C@]2(CCN(C/C=C/c3ccc(F)cc3)C2)C(=O)N1	-8%	1.19
Cc1ncoc1C(=O)N1CCO[C@H](C(C)(C)C)CC1	-8%	1.45
Cc1cccc(-c2cc(NC(=O)COc3ccc(Cl)cc3)n(-c3ccccc3)n2)c1	-7%	1.03
CN1CCC[C@H](NC(=O)Nc2nnc(C3CCOCC3)s2)C1=O	4%	-0.83
CC(C)c1nccc(C[C@@H]2[C@@H](CO)[C@H](O)C[C@H]2NCc2ccc(F)cc2)n1	28%	-3.16
O=C1CN(C(=O)CN2CCCCCC2)CCN1CCc1ccccc1	-4%	0.93
Cc1cc2c(cc1S(=O)(=O)N(C)CC(=O)Nc1ccc(Cl)cn1)OCC(=O)N2	-9%	0.85
